For one assay, the target named is T1, NRG1 (UniProt Q02297-6 177-241, limits assumed).
T1 sequence (looked up): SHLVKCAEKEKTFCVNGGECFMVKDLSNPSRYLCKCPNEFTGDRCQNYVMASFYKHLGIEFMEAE
Put plainly: cell-based or functional assay.

Assay [1] deals with T2, heregulin (HRG) (UniProt Q02297-6 177-241, limits assumed, 125I label in Example 4).
T2 construct: also called HRG1β1
T2 sequence (looked up): T1 sequence (looked up)
Put plainly: NRG1β1 binding capacity against RB200h and RB220h.

The target in assay [2] is T2, heregulin (HRG). The assay is described as follows: 125I-HRG cross-linking normalised by anti-HER3 Western blot densitometry. Background: Immunoblotting shows a protein as a band on a membrane.
Assay [3] addresses T2, heregulin (HRG). Put plainly: 125I-HRG binding with BS3 cross-linking, SDS-PAGE, film.

B1: HER3-621/Fc (Fc fusion)
chain: SEVGNSQAVCPGTLNGLSVTGDAENQYQTLYKLYERCEVVMGNLEIVLTGHNADLSFLQWIREVTGYVLVAMNEFSTLPLPNLRVVRGTQVYDGKFAIFVMLNYNTNSSHALRQLRLTQLTEILSGGVYIEENDKLCHMDTIDWRDIVRDRDAEIVVKDNGRSCPPCHEVCKGRCWGPGSEDCQTLTKTICAPQCNGHCFGPNPNQCCHDECAGGCSGPQDTDCFACRHFNDSGACVPRCPQPLVYNKLTFQLEPNPHTKYQYGGVCVASCPHNFVVDQTSCVRACPPDKMEVDKNGLKMCEPCGGLCPKACEGTGSGSRFQTVDSSNIDGFVNCTKILGNLDFLITGLNGDPWHKIPALDPEKLNVFRTVREITGYLNIQSWPPHMHNFSVFSNLTTIGGRSLYNRGFSLLIMKNLNVTSLGFRSLKEISAGRIYISANRQLCYHHSLNWTKVLRGPTEERLDIKHNRPRRDCVAEGKVCDPLCSSGGCWGPGPGQCLSCRNYSRGGVCVTHCNFLNGEPREFAHEAECFSCHPECQPMGGTATCNGSGSDTCAQCAHFRDGPHCVSSCPHGVLGAKGPIYKYPDVQNECRPCHENCTQGCKGPELQDCLGQTLVLIGKTGGGGG[letters of human IgG1 Fc not shown]
notes: Fc-mediated homodimer; also called HFD300; HFD300h
For B1, in the assay with NRG1, the “Approximate EC50, inhibition of NRG1-β-induced HER3 phosphorylation (MCF7 cells, phosphotyrosine ELISA)” value is about 45.5 nM. For the same molecule, the “binding activity relative to the heterodimers” value with heregulin (HRG) [1] came out at 30%.

B2: HFD310 (HER3-500/Fc) (Fc fusion)
chain: SEVGNSQAVCPGTLNGLSVTGDAENQYQTLYKLYERCEVVMGNLEIVLTGHNADLSFLQWIREVTGYVLVAMNEFSTLPLPNLRVVRGTQVYDGKFAIFVMLNYNTNSSHALRQLRLTQLTEILSGGVYIEKNDKLCHMDTIDWRDIVRDRDAEIVVKDNGRSCPPCHEVCKGRCWGPGSEDCQTLTKTICAPQCNGHCFGPNPNQCCHDECAGGCSGPQDTDCFACRHFNDSGACVPRCPQPLVYNKLTFQLEPNPHTKYQYGGVCVASCPHNFVVDQTSCVRACPPDKMEVDKNGLKMCEPCGGLCPKACEGTGSGSRFQTVDSSNIDGFVNCTKILGNLDFLITGLNGDPWHKIPALDPEKLNVFRTVREITGYLNIQSWPPHMHNFSVFSNLTTIGGRSLYNRGFSLLIMKNLNVTSLGFRSLKEISAGRIYISANRQLCYHHSLNWTKVLRGPTEERLDIKHNRPRRDCVAEGKVCDPLCSSGGCWGPGPGQCLSGGGGG[letters of human IgG1 Fc not shown]
notes: Fc-mediated homodimer; also called HER3-501/Fc; HF310-Fc
B2: the binding result with heregulin (HRG) [2] is “binds”.

B3: HER4-650/Fc (Fc fusion)
chain: QSVCAGTENKLSSLSDLEQQYRALRKYYENCEVVMGNLEITSIEHNRDLSFLRSVREVTGYVLVALNQFRYLPLENLRIIRGTKLYEDRYALAIFLNYRKDGNFGLQELGLKNLTEILNGGVYVDQNKFLCYADTIHWQDIVRNPWPSNLTLVSTNGSSGCGRCHKSCTGRCWGPTENHCQTLTRTVCAEQCDGRCYGPYVSDCCHRECAGGCSGPKDTDCFACMNFNDSGACVTQCPQTFVYNPTTFQLEHNFNAKYTYGAFCVKKCPHNFVVDSSSCVRACPSSKMEVEENGIKMCKPCTDICPKACDGIGTGSLMSAQTVDSSNIDKFINCTKINGNLIFLVTAIHGDPYNAIEAIDPEKLNVFRTVREITGFLNIQSWPPNMTDFSVFSNLVTIGGRVLYSGLSLLILKQQGITSLQFQSLKEISAGNIYITDNSNLCYYHTINWTTLFSTINQRIVIRDNRKAENCTAEGMVCNHLCSSDGCWGPGPDQCLSCRRFSRGRICIESCNLYDGEFREFENGSICVECDPQCEKMEDGLLTCHGPGPDNCTKCSHFKDGPNCVEKCPDGLQGANSFIFKYADPDRECHPCHPNCTQGCNGPTSHDCIYYPWTGHSTLPQHARTGGGGG[letters of human IgG1 Fc with Q311P (EU numbers) not shown]
notes: Fc-mediated homodimer, tested as conditioned medium; also called HFD400; HDD400
As to B3, in the assay with heregulin (HRG) [3], the binding result was “binds”.

For the origin of these results see US20250388650A1 (ENOSI THERAPEUTICS, published 2025).
